The source of these data is PubChem BioAssay AID463173 (ICCB-Longwood Screening Facility, Harvard Medical School, 2010).

Screen size: about 52,000 compounds; about 1,700 (3.3%) were called active. No stated cut-off is given here; in the data, active means survival mostly below about 52% (no sharp cut-off); inactive means mostly above about 56%. The list shows a part of the results.

In this assay the test system is Wild type. Kind of assay: S. aureus survival, RN4220 and DeltatarO strains – OD600, teichoic acid synthesis inhibitors, primary screen (AID 463173). The settings on record: S. aureus RN4220 wild type/DeltatarO growth, OD600, 18 h, stronger effect = lower value, screened at 18.75 µg/mL (by protocol).
Regarding `O=C(NCc1ccccc1)c1nc(-c2ccc(Cl)cc2)n2c1CCCCC2`, the survival was inactive: 125%.
Consider `CCc1nonc1NC(=O)c1oc2ccc(Cl)cc2c1C`, for which the survival is inactive: 93%.
For the molecule `Cc1ccc(Cl)cc1NC(=O)Cn1c(SCC(=O)NCc2ccccc2)nc2ccccc21`, the survival was inactive: 80%.
Consider `CCOC(=O)c1c(NC(=O)CSc2cn(CCNC(=O)c3ccc(OCC)cc3)c3ccccc23)sc2c1CCC2`, for which the survival is inactive: 71%.
Take `O=C(CSc1nc2ccccc2n1CC(=O)N1CCCC1)N1CCCCC1`: the survival is inactive: 104%.
For the molecule `Clc1ccc2nc(-c3cccs3)c(Nc3ccc4c(c3)OCCO4)n2c1`, the survival is inactive: 78%.
The figure for `CCOC(=O)c1cc(OC(=O)c2cc(OC)cc(OC)c2)n(-c2ccccc2)n1` is inactive: 66%; for `CC1=C(C(=O)OC2CCCCCC2)C(c2ccc(Cl)cc2Cl)CC(=O)N1` (configuration not stated) it is inactive: 82%; for `CC1Cc2cc(S(=O)(=O)NCc3ccccc3)ccc2N1C(=O)C1CCC1` (configuration not stated) it is inactive: 73%.
The figure for `C=CCSc1nc2ccccc2c(=O)n1CC1CCCO1` (configuration not stated) is inactive: 108%; for `CN(C)S(=O)(=O)c1ccc(S(=O)(=O)N(CC(=O)Nc2ccccc2)C2CC2)cc1` it is inactive: 101%; for `COc1ccccc1NC(=O)CSc1oc(-c2ccc(F)cc2)nc1S(=O)(=O)c1ccc(Br)cc1` it is inactive: 64%.
The same measure for `CC(C)(C)c1ccccc1NC(=O)c1cnn2c(C(F)F)cc(-c3ccccc3)nc12`: inactive: 75%; for `CCCCCOc1ccc(C(CC(N)=O)CC(=O)O)cc1` (configuration not stated): inactive: 117%.
On to `Cn1c(=O)c2c(SCC(=O)Nc3ccc(F)cc3F)nc(C3CCCC3)nc2n(C)c1=O`, for which the survival was inactive: 66%.
Turning to `CCOC(=O)c1cnc(N2CCN(c3ccc(C)cc3C)CC2)c2ccccc12`, the survival was inactive: 112%.
For the molecule `Cc1ccc(C)c(NC(=O)Cn2ccn(-c3ccc(F)cc3)c(=O)c2=O)c1`, the survival was inactive: 112%.
Turning to `CSc1cccc(NC(=O)CN2C(=O)COc3ccc(S(=O)(=O)N4CCC(C)CC4)cc32)c1`, the survival was inactive: 77%.
With `Cc1sc2nc(CN(C(=O)c3cccs3)C3CCCC3)[nH]c(=O)c2c1C`, the survival is inactive: 114%.
For `COCCN(C(C)=O)c1nnc(-c2cccnc2)s1`, the survival was inactive: 94%.
As to `Cc1ccccc1CNC(=O)c1ccc2[nH]c(C)c(C)c2c1`, the survival was inactive: 120%.
For the molecule `Cc1cc(Cl)nc(SCC(=O)c2ccccc2)n1`, the survival is inactive: 98%.
Turning to `Cc1cc(C)cc(Nc2cc(C)nc3nc(-c4ccco4)nn23)c1`, the survival was inactive: 78%.
As to `Cc1ccc(-c2nc3c4ccccc4n(CC(=O)N4CCN(c5ccc(F)cc5)CC4)c(=O)n3n2)cc1`, the survival was inactive: 83%.
Take `COc1ccc(CCNC(=O)C2CCCN2C(=O)NC2CCCCC2)cc1OC` (configuration not stated): the survival was inactive: 105%.
In the case of `CCC(C)NC(=O)Cn1c(-c2cccs2)cc2cc(Cl)ccc21` (configuration not stated), the survival is inactive: 70%.
Take `CCOC(=O)c1c(NC(=O)c2cc(-c3ccc(Cl)cc3)on2)sc(C)c1C`: the survival is inactive: 81%.
As for `Cc1ccc(CN(C(=O)c2ccccc2[N+](=O)[O-])c2ccccn2)cc1`, the survival is inactive: 81%.
The same measure for `Cc1cc(N2CCC(C(=O)NCCC(C)C)CC2)n2nc(C)c(-c3ccc(Cl)cc3)c2n1`: inactive: 85%; for `COc1ccc(-c2nc(-c3ccccc3)c(-c3ccc(F)cc3)[nH]2)c(OC)c1C`: active: 15%.
The same measure for `CC1CN(C(=O)CCC(=O)NCc2ccccc2)c2cc(Cl)ccc2O1` (configuration not stated): inactive: 92%; for `Cc1ccc(Cl)cc1NC(=O)Cn1ncc2c(C)n(Cc3ccccc3F)c(C)c2c1=O`: inactive: 80%; for `CC(C)(C)NC(=O)c1ccc2nc(CCc3ccccc3)oc2c1`: inactive: 65%.
As to `Cc1cc(C)cc(N2C(=O)CCSC23C(=O)N(Cc2ccccc2)c2ccccc23)c1` (configuration not stated), the survival is inactive: 73%.
Consider `CCOc1ccc(CCNC(=O)c2ccc3c(c2)sc2nc(-c4ccc(F)cc4)cn23)cc1OCC`, for which the survival is inactive: 76%.
For the molecule `O=S(=O)(NCCc1csc2nc(-c3ccc(F)cc3)nn12)c1ccc(Oc2ccccc2)cc1`, the survival is inactive: 92%.
`COc1cccc(CNCCSc2nnnn2C)c1OCc1ccc(F)cc1`: the survival is inactive: 69%.
Take `CC(C)c1ccc(NC(=O)CCn2c(=O)c3cccn3c3ccccc32)cc1`: the survival is inactive: 73%.
The figure for `Cc1ccc(C(CC(=O)Nc2ccc(F)c(Cl)c2)N2Cc3ccccc3C2=O)cc1` (configuration not stated) is inactive: 78%; for `COc1cccc(NC(=O)N(Cc2c[nH]c3ccccc23)C2CCCCC2)c1` it is inactive: 71%; for `CCOC(=O)c1[nH]c(C)c(CCC(=O)Nc2ccc(Br)c(C)c2)c1C` it is inactive: 81%.
On to `Cc1ccc(N2CC(NC(=O)C3CC3)CC2=O)cc1C` (configuration not stated), for which the survival is inactive: 75%.
With `CCOC(=O)c1ccn(-c2nc(-c3cccc(OC)c3)cc(C(F)(F)F)n2)n1`, the survival is inactive: 48%.
The figure for `Cc1nc2sccn2c(=O)c1S(=O)(=O)Nc1ccc(N2CCN(C(=O)C(C)C)CC2)cc1` is inactive: 87%; for `COc1cc(C(=O)Nc2nonc2-c2ccc(Cl)cc2)cc(OC)c1OC` it is inactive: 94%.
In the case of `Cc1cccc(N2CCN(S(=O)(=O)c3c(C(=O)N4CCC(C)CC4)c(C)n(C)c3C)CC2)c1C`, the survival is inactive: 72%.
For `Cc1ccc(NC(=O)Cn2cnc3sc(C)c(S(=O)(=O)N4CCN(c5ncccn5)CC4)c3c2=O)cc1F`, the survival is inactive: 73%.
For the molecule `CCCCCc1nn2cc(-c3ccccc3)nc2s1`, the survival was inactive: 107%.
Turning to `Cn1nnnc1SCCCNCc1cc(Cl)ccc1OCc1ccccc1F`, the survival was inactive: 85%.
Turning to `Cc1sc2ncnc(SCC(N)=O)c2c1C`, the survival is inactive: 101%.
The figure for `Cc1cccc(CNC(=O)C2CCN(S(=O)(=O)c3ccc4c(c3)CCCN4C(=O)C3CCC3)CC2)c1` is inactive: 84%; for `CCCc1cnc2c(c1SCC(=O)Nc1ccccc1F)c(=O)n(C)c(=O)n2C` it is inactive: 123%.
Regarding `CCOC(=O)c1cnc(SC)nc1Nc1ccccc1`, the survival was inactive: 114%.
`CC1CCN(C(=O)c2cc3n(n2)C(C(F)(F)F)CC(c2ccco2)N3)CC1` (configuration not stated): the survival was inactive: 115%.
The same measure for `COc1ccc(NC(=O)CSC2=Nc3ccccc3C3=NC(CC(=O)NCc4ccc5c(c4)OCO5)C(=O)N23)cc1` (configuration not stated): inactive: 71%.
For `CCOc1ccc(C(c2c(O)cc(C)n(Cc3ccco3)c2=O)N2CCN(c3ccccc3)CC2)cc1` (configuration not stated), the survival is inactive: 83%.
Turning to `Cc1ccc(C2C=C(c3ccc(Cl)cc3)Nc3nc(NC(=O)c4ccco4)nn32)cc1` (configuration not stated), the survival was inactive: 103%.
